Laboratory results as given in publication PMC4336329 (PLoS ONE, 2015).
Out of some 310,000 compounds screened, about 14,000 (4.5%) showed an effect of 50% or more. The effect is printed as a negative number. Some of the results follow.

target: human ether-à-go-go-related gene (hERG) potassium channel (human, UniProt Q12809); test: primary screen, population patch clamp on CHO cells stably expressing hERG
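Note: peak tail current of the secondary pulse compared with the same well before compound.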

Sequence of human ether-à-go-go-related gene (hERG) potassium channel (Q12809 whole entry, looked up): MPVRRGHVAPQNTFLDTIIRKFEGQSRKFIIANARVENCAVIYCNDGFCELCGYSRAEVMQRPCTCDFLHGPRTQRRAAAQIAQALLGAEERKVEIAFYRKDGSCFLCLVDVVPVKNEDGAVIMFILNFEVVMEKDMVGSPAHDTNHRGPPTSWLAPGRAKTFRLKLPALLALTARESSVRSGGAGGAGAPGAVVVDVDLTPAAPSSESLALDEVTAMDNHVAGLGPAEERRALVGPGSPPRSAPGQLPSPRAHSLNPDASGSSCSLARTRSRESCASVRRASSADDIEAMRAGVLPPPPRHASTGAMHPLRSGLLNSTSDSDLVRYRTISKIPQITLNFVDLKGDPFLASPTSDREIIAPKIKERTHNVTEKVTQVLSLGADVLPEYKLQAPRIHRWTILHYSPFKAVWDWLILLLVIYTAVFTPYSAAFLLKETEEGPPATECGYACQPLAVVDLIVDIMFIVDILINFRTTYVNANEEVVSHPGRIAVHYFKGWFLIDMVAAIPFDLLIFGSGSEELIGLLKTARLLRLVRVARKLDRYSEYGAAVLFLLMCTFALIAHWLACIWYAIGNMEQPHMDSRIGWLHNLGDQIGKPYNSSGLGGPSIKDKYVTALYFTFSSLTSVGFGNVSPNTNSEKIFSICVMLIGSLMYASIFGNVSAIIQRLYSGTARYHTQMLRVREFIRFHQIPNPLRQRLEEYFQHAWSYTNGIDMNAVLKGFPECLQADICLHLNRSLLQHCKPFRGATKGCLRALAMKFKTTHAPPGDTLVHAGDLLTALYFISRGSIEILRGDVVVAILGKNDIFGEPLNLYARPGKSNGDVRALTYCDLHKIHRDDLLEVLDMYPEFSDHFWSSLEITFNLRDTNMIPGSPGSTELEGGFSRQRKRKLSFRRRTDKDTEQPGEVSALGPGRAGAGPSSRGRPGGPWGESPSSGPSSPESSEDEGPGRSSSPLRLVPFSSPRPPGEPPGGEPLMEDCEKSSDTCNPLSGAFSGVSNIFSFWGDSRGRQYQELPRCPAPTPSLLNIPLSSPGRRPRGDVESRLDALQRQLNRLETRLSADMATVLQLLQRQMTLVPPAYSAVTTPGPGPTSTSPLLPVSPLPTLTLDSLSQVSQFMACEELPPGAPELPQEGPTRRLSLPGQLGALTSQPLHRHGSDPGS

Point of comparison: `Cc1ccc(C(=O)Nc2cc3[nH]c(=O)oc3cc2C)cc1`, “hERG current change (%, negative = inhibition) at 10uM” value 1.6%. Against it:
- COc1ccc(C2CC(c3ccccc3)=NN2C(=O)COC(=O)c2nc3nc(C)cc(C)n3n2)cc1 (centres unmarked) — lower, -7.01%
- Cc1cc(C)cc(NC(=O)CSc2nc3ccccc3nc2N2CCCC2)c1 — lower, -40.5%
- Cc1ccccc1OCC(O)Cn1c(N2CCN(c3ccccc3)CC2)nc2c1c(=O)[nH]c(=O)n2C (centres unmarked) — lower, 1.54%
- O=c1[nH]c(Cc2ccccc2Cl)nc2ccccc12 — higher, 24.2%
- Cc1cccc(NC(=O)CN2CCN(CC(=O)Nc3cccc(C)c3)CC2)c1 — lower, -63.7%
- COC(=O)CSc1nnc(-c2ccco2)n1Cc1ccco1 — lower, -26.8%
- CCOc1cccc(/C=N/NC(=O)c2ccc3c(c2)OCCO3)c1O — higher, 15.4%
- NC(=O)N(N)c1nc(N2CCCC2)nc(N2CCCC2)n1 — higher, 15.3%
- COc1ccc(O)c(CNc2ccccc2F)c1 — higher, 15.8%
- CCCOC(=O)/C(=C\c1ccc([N+](=O)[O-])o1)NC(=O)c1ccccc1 — lower, -43.3%
- S=c1[nH]ncn1/N=C/c1ccc(Br)cc1 — higher, 11.1%
- O=C(CN1CC(=O)Oc2ccccc21)OCC(=O)c1ccccc1 — higher, 3.85%
- COc1ccccc1OCC(=O)Nc1c2c(nn1-c1ccc(C)cc1)CS(=O)(=O)C2 — lower, -16.9%
- O=c1[nH]n(-c2ncnc3c2cnn3-c2ccccc2)c(=O)c2ccccc12 — higher, 3.3%
- CC1CCN(C(=O)CSCC(=O)Nc2nc(-c3cccs3)cs2)CC1 — lower, -20.6%
- CCCc1cc(C(=O)Nc2cccc(Cl)c2)no1 — lower, -25.9%
- CC(C)(C)NC(=O)C(c1ccccc1)N(Cc1ccco1)C(=O)c1csnn1 (centres unmarked) — higher, 10.4%
- COc1cc(-n2ccnc2SC)c(Cl)cc1Cl — lower, -3.29%
- CC(=O)Nc1ccc(N=Nc2c(C)[nH]n(C(N)=S)c2=O)cc1 — higher, 19.8%
- O=C(Cc1ccc(F)cc1)NCCc1ccc(F)cc1 — lower, -18.5%
- CCC(=O)n1nc(-c2cccnc2)nc1NCc1cccs1 — higher, 12.8%
- COc1ccc(/C=C(\C#N)C(=O)OCC(=O)NCc2ccccc2)cc1 — higher, 9.29%
- Fc1ccccc1CSCc1nc2ccccc2[nH]1 — lower, -5.57%
- CC(=O)Nc1ccc(S(=O)(=O)N(C)CC(=O)NC2CCCC(C)C2C)cc1 (centres unmarked) — lower, -5.36%
- Cc1ccc(N=C2NC(=O)/C(=C\c3ccco3)S2)cc1 — lower, -7.17%
- C=CCOc1nc(-c2ccncc2)nc2ccccc12 — higher, 3.6%
- COc1ccc(S(=O)(=O)NCCc2cn3nc(C)c(C)nc3n2)cc1F — higher, 3.38%
- COc1ccc(N(CC(=O)N2CCN(Cc3ccccc3)CC2)S(=O)(=O)c2ccccc2)cc1 — lower, -26.3%
- O=C(CSc1nnc(Cc2cc(=O)[nH]c(=O)[nH]2)n1-c1ccccc1)N1CCCc2ccccc21 — higher, 8.49%
- COc1ccc(NS(=O)(=O)c2cn(C)c(=O)n(C)c2=O)cc1 — lower, -0.328%
- COc1ccc(OC)c(/C=N/NC(=O)c2ccc3nc[nH]c3c2)c1 — higher, 4.22%
- COC(=O)CSc1nnc(CNC(=O)c2ccccc2F)n1-c1ccccc1 — higher, 9.62%
- CCCC(c1nnnn1Cc1ccco1)N1CCN(c2cc(Cl)ccc2C)CC1.Cl (centres unmarked) — lower, -0.973%
- O=S(=O)(/C=C/c1ccccc1)N1CCc2ccccc2C1 — higher, 21.4%
- CN(C(=O)COC(=O)CCC(=O)c1ccc(Cl)cc1)c1c(N)n(Cc2ccccc2)c(=O)[nH]c1=O — lower, -17.7%
- Cc1cc2occ(CC(=O)N(CCC(C)C)c3c(N)n(Cc4ccccc4)c(=O)[nH]c3=O)c2cc1C — lower, -8.34%
- Cc1c(NC(=O)c2ccccc2NC(=O)COc2ccccc2)cccc1C(=O)O — higher, 14.2%
- CCOC(=O)c1c(NC(=O)CSc2nnc(-c3ccco3)o2)sc(C)c1C — lower, -12.6%
- CC1=CCC2C(=O)N(c3ccc(C)cc3)C(=O)C2C1 (centres unmarked) — lower, -4.42%
- Cc1cc(C)n(CC(C)NCc2cn[nH]c2-c2cccc3ccccc23)n1 (centres unmarked) — lower, -43.9%
- CCc1ccc2[nH]c(=O)c(CN(CCCO)C(=O)NCc3ccccc3)cc2c1 — lower, -13%
- CCCn1c(SCC(=O)NC2CCCCC2)nnc1-c1ccncc1 — higher, 4.24%
- CSc1ccc(S(=O)(=O)Nc2ccc(NC(C)=O)cc2)cc1 — lower, -11.3%
